Data published in publication PMC7819943, “Rice protein-binding microarrays: a tool to detect cis-acting elements near promoter regions in rice”.
The other results are listed elsewhere or left out.

target: T1, OsWOX13 (Oryza sativa, UniProt Q5QMM3 1-267); experiment: protein-binding microarray (RPBM); PBS, 2% BSA, 51.3 ng/ul salmon testes DNA, 50 uM zinc acetate, 200 nM TF, 25 C, 1 h; high values mean tight binding; conditions: protein: recombinant; tags: N-terminal polyhistidine and DsRed monomer fusion (pET32a); label: CyDye5-dUTP incorporated in the synthesized complementary strand; 3' TTTTT single-stranded linker to array surface; dsDNA, one strand shown
T1 sequence: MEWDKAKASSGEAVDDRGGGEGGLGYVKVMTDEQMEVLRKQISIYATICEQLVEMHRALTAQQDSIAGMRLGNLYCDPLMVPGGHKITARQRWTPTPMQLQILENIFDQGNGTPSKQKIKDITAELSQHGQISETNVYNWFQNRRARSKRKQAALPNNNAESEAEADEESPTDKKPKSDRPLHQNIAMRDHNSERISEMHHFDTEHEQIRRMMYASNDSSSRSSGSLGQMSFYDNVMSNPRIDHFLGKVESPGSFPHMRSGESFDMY
Outline: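 The binding signal for each feature is its fluorescence intensity in arbitrary units. An Axon 4000B scanner was used to read a custom Agilent array that had been made double-stranded with Cy5-dUTP primer extension, blocked with 2% BSA, incubated at 25 °C for 1 h with 200 nM protein in PBS, 2% BSA, salmon testes DNA and 50 µM zinc acetate, and washed. The protein was an N-terminal polyhistidine–DsRed transcription factor fusion from E. coli BL21-CodonPlus, purified on Ni–NTA.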

Sequence	binding signal
ATAGTGATTTTAAGCCGATGATGACTATAGGGCTTACCGACGGAGTCACCTAGTGCAG	3680 fluorescence intensity (a.u.)
CATTGGATTGGATGATCCATCTTGCAGGCCTGTGGCATGGCGGAGTCACCTAGTGCAG	8190 fluorescence intensity (a.u.)
TCAACTACTTATATTAATTAACGTCATTTTGTCAACGTTTCGGAGTCACCTAGTGCAG	3160 fluorescence intensity (a.u.)
CAATGCTAAAATTTTGACAAATTAGTAATATTACTAAAATCGGAGTCACCTAGTGCAG	3810 fluorescence intensity (a.u.)
TCTAAAATTTGGCTTGATAATTGGAGGCATCCAGATAGATCGGAGTCACCTAGTGCAG	15900 fluorescence intensity (a.u.)
AAATTAGATAGGATATTTTCTAGTACTACAAATATGGACACGGAGTCACCTAGTGCAG	8260 fluorescence intensity (a.u.)
ATATTTGACAAATAATTAAATACCCCTCCAAAGCTGATGACGGAGTCACCTAGTGCAG	7640 fluorescence intensity (a.u.)
TAATAAATATTTGATTATAGATAATTCTCACCAATAATCCCGGAGTCACCTAGTGCAG	6210 fluorescence intensity (a.u.)
CTGTTCCTAAATTACAATGTATTTAGAAGTTTCACTACTACGGAGTCACCTAGTGCAG	3540 fluorescence intensity (a.u.)
AAGTTCAAATTTTGAATTTCAATTATGGCTGATAAGCTACCGGAGTCACCTAGTGCAG	6990 fluorescence intensity (a.u.)
CAAAATTATGTGACACTTACATATAAGTTACACTGTAGTTCGGAGTCACCTAGTGCAG	6290 fluorescence intensity (a.u.)
CTCTGATTAGCCTTCTTTTCTAAAGATCATGTGATTTCAACGGAGTCACCTAGTGCAG	13000 fluorescence intensity (a.u.)
TATATATATATATATATATATATATATATATATATACACACGGAGTCACCTAGTGCAG	10800 fluorescence intensity (a.u.)
CCTGATTTCGCACATCATCAAGACATCTTTGCCGTGATACCGGAGTCACCTAGTGCAG	15400 fluorescence intensity (a.u.)
TTGGCAATTGTAATTGAGCGTCATGGCTGACGAATTTCTTCGGAGTCACCTAGTGCAG	8520 fluorescence intensity (a.u.)
AAAGTTAATTTATTTTGAGACAGATATACTACATATCACACGGAGTCACCTAGTGCAG	29100 fluorescence intensity (a.u.)
CTAATTACATGTAATAAACTTACCGTTCATAACATTTACACGGAGTCACCTAGTGCAG	17300 fluorescence intensity (a.u.)
AAACAATTACGTCTGCTTGACAGATCAGAAGATTCTAACGCGGAGTCACCTAGTGCAG	21800 fluorescence intensity (a.u.)
GCATGACAAATGGCGTTAATTAGTCCACAAATAATATATACGGAGTCACCTAGTGCAG	3210 fluorescence intensity (a.u.)
ATTTCCCTTCCCTTTCTTTCTTTCTTTCTTTCTTTCTTTCCGGAGTCACCTAGTGCAG	6080 fluorescence intensity (a.u.)
AAACGATCAATTAATTAATTGATTATCCGCGCGCGCGCGGCGGAGTCACCTAGTGCAG	26530 ± 63.6 fluorescence intensity (a.u.)

Sequence	binding signal
CAGTCGGTTGATTTGATCATGGGTACCATGACTCTGCCCCCGGAGTCACCTAGTGCAG	14900 fluorescence intensity (a.u.)
GCTGATGATGATGCAGTTCTAAGAGGAGTGCAGTTGTGAGCGGAGTCACCTAGTGCAG	3320 fluorescence intensity (a.u.)
TGTTGATTTGCTACCCTTCCTTCCGTCCTCAACATTATCACGGAGTCACCTAGTGCAG	31600 fluorescence intensity (a.u.)
ATTAACTATTAGATTGGCTATATATGAATTAGAGTTAGCACGGAGTCACCTAGTGCAG	30500 fluorescence intensity (a.u.)
TTTATGTCTAATTAAATTATCCTGTTTCGGAGGTGATTAACGGAGTCACCTAGTGCAG	17500 fluorescence intensity (a.u.)
TTTGAGCCTAATTAAGCTGTCATTAGCACATATGGGTTACCGGAGTCACCTAGTGCAG	10300 fluorescence intensity (a.u.)
CTTCTGTTTACTAATTGGATTCTCTGTGTGAACTCTTACGCGGAGTCACCTAGTGCAG	13500 fluorescence intensity (a.u.)
AATATTTCCTTAATTATCATCATTATCCTAAACTAATCAACGGAGTCACCTAGTGCAG	4750 fluorescence intensity (a.u.)
ATACCATGATTTTGATAATGTGATGTTACAGTAAACTTTTCGGAGTCACCTAGTGCAG	16300 fluorescence intensity (a.u.)
TAAATTTGATTCCATTTCCGTTGCCTGTTCATTTCGTCGACGGAGTCACCTAGTGCAG	6090 fluorescence intensity (a.u.)
CATGATTACTTGGGTTATCAATATGACATTTCAAGGTGAACGGAGTCACCTAGTGCAG	33300 fluorescence intensity (a.u.)
CGAGATTGAGGTAGTAGTCCGCCGCGGATCTCAGCATATCCGGAGTCACCTAGTGCAG	5830 fluorescence intensity (a.u.)
ATGCATTATCAATCATTTGTGCTTGACGCGTCGCTGATTCCGGAGTCACCTAGTGCAG	38500 fluorescence intensity (a.u.)
GGTAATTTATGCTCGCGGGCATACCCGTTACTACATGATGCGGAGTCACCTAGTGCAG	10200 fluorescence intensity (a.u.)
CCATCCATTTTCATTAATGAACTAATCTCCAACTAAAATCCGGAGTCACCTAGTGCAG	11500 fluorescence intensity (a.u.)
TCCGGAAGATTGGACCGATATATCACCTATCACTAAAAGACGGAGTCACCTAGTGCAG	9920 fluorescence intensity (a.u.)
ACTGCTGTGTGTGGTCCGTAATTGATCAAAGAAAATATCACGGAGTCACCTAGTGCAG	4950 fluorescence intensity (a.u.)
AGCTAATTCAGTCTCTGTTGATAGCTTCGTTGCCCAAGAGCGGAGTCACCTAGTGCAG	5030 fluorescence intensity (a.u.)
TCTGATGAACCAAAGAATTGATGAAGTCAACCATATCAGCCGGAGTCACCTAGTGCAG	9810 fluorescence intensity (a.u.)
TTTAATCTTCTTATTTGACTGATATGTGGACCCACATATTCGGAGTCACCTAGTGCAG	5940 fluorescence intensity (a.u.)
CATCCATACATATAATTAGTTAGGTATCTAATCATGGATTCGGAGTCACCTAGTGCAG	3250 fluorescence intensity (a.u.)
